About 540 (0.36%) of roughly 150,000 compounds showed an effect of 50% or more. The list shows a part of the results.

This test concerns Plasmodium falciparum. Briefly: Primary screen in NF54 nanoGlo assay, in single point, at 2uM, 72h; a lower Z score goes with more inhibition. It is filed as functional, Erythrocyte. The following applies: timepoint 72 hour.
As usually defined, the % Inhibition is the change of the read-out against control, counted positive when it falls. In the case of `O=C(C1CCC1)N1CCC2(CC1)C[C@@H](Cc1cccc(F)c1)CCO2`, the “% Inhibition” value is on record as -9% and the Z score turned out to be 1.13.
Take `CCOc1ccc(N2C[C@@H](C(=O)NCc3ccc(C)n3C)CC2=O)cc1`: the “% Inhibition” value is reported as -5% and the Z score was 0.86.
`O=C1CNC(=O)N1CC(=O)N(Cc1ccccc1)[C@H]1CCCC[C@@H]1O`: the “% Inhibition” value came out at 6% and the Z score was -0.72.
The matching figures for `O=C(c1ccccn1)N1CC[C@H]2COC(=O)N2c2cc(F)ccc2C1`: 5% and -0.68.
In the case of `OCC1(CN[C@H](C2=CCCCC2)C2CCCCC2)COC1`, the “% Inhibition” value is given as -5% and the Z score came out at 0.91.
For `COc1ccc(-c2cc(C[C@@H]3CC[C@H](O)[C@@H](CNC(=O)Nc4ccccc4)O3)no2)cc1`, the “% Inhibition” value was -1% and the Z score was determined as 0.12.
With `COc1ccc(-c2nc(CCNS(=O)(=O)c3ccc(C)cc3C)n[nH]2)cc1`, the “% Inhibition” value is -11% and the Z score is recorded as 2.09.
Regarding `Cc1cc(Br)c(OCc2ccc(-c3nnco3)cc2)c(Br)c1`, the “% Inhibition” value is given as -3% and the Z score came to 0.45.
As for `COC[C@H](C)N(Cc1ccccc1OC)Cc1ccnn1C`, the “% Inhibition” value was -14% and the Z score came out at 1.7.
For `CC(C)(Oc1cc2c(cc1-c1cccc(C(N)=O)c1)CCO2)C(=O)O`, the “% Inhibition” value was -2% and the Z score was determined as 0.31.
Regarding `CCCn1cnc2cc(-c3noc(-c4sc(C)nc4C)n3)ccc21`, the “% Inhibition” value turned out to be 7% and the Z score is recorded as -0.96.
For `CC1CN(CN2C(=O)NC3(CCCCC3)C2=O)CC(C)O1` (centres undefined), the “% Inhibition” value is given as 15% and the Z score is -1.72.
Regarding `Cc1sc2ncnc(NC(=O)c3cccc(C#N)c3)c2c1C`, the “% Inhibition” value worked out at 0% and the Z score was -0.07.
Consider `CN(C[C@@H](O)Cc1ccccc1)S(=O)(=O)C1COC1`, for which the “% Inhibition” value is 2% and the Z score is given as -0.41.
Consider `Cc1ccc2oc(NCC3(S(C)(=O)=O)CCOCC3)nc2c1`, for which the “% Inhibition” value is listed as -2% and the Z score is reported as 0.23.
Take `O=C(NCc1ccccn1)c1ccc(Nc2c(Oc3ccc4c(c3)CCC4)cnn(-c3ccc(Cl)c(Cl)c3)c2=O)cc1`: the “% Inhibition” value is -8% and the Z score is listed as 0.73.
With `Cc1cc(NC(=O)c2cn([C@H]3CCS(=O)(=O)C3)nc2C(C)C)[nH]n1`, the “% Inhibition” value is -7% and the Z score worked out at 0.8.
`O=S(=O)(N1CCOCC1)N1CC[C@H](Oc2ccncc2Cl)C1`: the “% Inhibition” value is 3% and the Z score was -0.6.
Consider `Nc1cc(C(=O)N2CCC[C@]3(CCC(=O)N(C4CCCC4)C3)C2)n[nH]1`, for which the “% Inhibition” value is given as 1% and the Z score is -0.18.
For `O=C1N(CC2CC2)CCC[C@@]12CCN(Cc1c[nH]nc1-c1cccc(F)c1)C2`, the “% Inhibition” value is on record as -14% and the Z score worked out at 2.04.
`Cc1nnc(-c2c(C)[nH]c(C)c2S(=O)(=O)Nc2ccc(Cl)cc2Cl)o1`: the “% Inhibition” value is -18% and the Z score is given as 3.48.
`C=CCN1CCC(NCCC(C)(C)C)CC1`: the “% Inhibition” value was -7% and the Z score was found to be 0.94.
The matching figures for `Cn1cnc(-c2cccc(C3CCC3)c2)c1CO`: 5% and -0.98.
Turning to `O=C(Nc1ccc(Cl)cc1)C(=O)N1CCOCC1`, the “% Inhibition” value is on record as -12% and the Z score was found to be 1.02.
The matching figures for `CC(C)NC(=O)NCCc1cccs1`: -14% and 2.24.
In the case of `CC1CCN(C[C@@H]2OC[C@H](NCc3ccc(F)cc3)[C@H]2O)CC1`, the “% Inhibition” value was found to be 16% and the Z score is given as -1.88.
With `CCCC[C@H](CC)C(=O)NCc1cccc(NC(N)=O)c1`, the “% Inhibition” value is given as -9% and the Z score was 1.27.
The matching figures for `CCc1nnc(CN[C@@H](C)c2cc(C)oc2C)o1`: -3% and 0.5.
As for `COCc1nc(C)c(CNC(=O)[C@H](C)n2ccnc2)s1`, the “% Inhibition” value is -5% and the Z score is recorded as 0.64.
`O=C(Cn1nc2c(Oc3ccccc3)nc3ccccc3n2c1=O)Nc1ccc2c(c1)OCO2`: the “% Inhibition” value was -15% and the Z score is listed as 2.05.
On to `CCN1CCN(C(=O)CCc2ccccc2)c2cccnc21`, for which the “% Inhibition” value came to 6% and the Z score is -0.67.
For `COc1ccc(CC(=O)NC[C@H]2Cc3cc(C)cc(-c4cc(C(C)=O)ccc4F)c3O2)cc1OC`, the “% Inhibition” value is on record as 18% and the Z score is recorded as -2.31.
For `Cc1ccccc1CS(=O)(=O)[C@@H](C)C(=O)NC(C)(C)C`, in that order: -3% and 0.56.
On to `CCN(CCc1ccccc1)C(=O)c1conc1C1CC1`, for which the “% Inhibition” value is recorded as -13% and the Z score is given as 1.72.
Regarding `Cc1nn(C)c(Cl)c1C(=O)N1CCC(C(=O)Nc2ccc3c(c2)OCO3)CC1`, the “% Inhibition” value worked out at 0% and the Z score is 0.02.
Take `CC(CC1CCCC1)C(=O)NC(C)c1nnc2c(=O)[nH]ccn12` (centres undefined): the “% Inhibition” value was determined as 0% and the Z score is recorded as -0.08.
As to `Cc1ccc(CC(=O)N2CCC[C@H]2c2ccncc2)s1`, the “% Inhibition” value amounted to 4% and the Z score is -0.3.
With `CC(O)CC1CCCCN1C(=O)Cc1cnn(C)c1` (centres undefined), the “% Inhibition” value worked out at 5% and the Z score is on record as -0.72.
On to `Cc1ncc(Cl)c(C(=O)N2CCC[C@H](c3noc(C(C)C)n3)C2)n1`, for which the “% Inhibition” value was -5% and the Z score was determined as 0.6.
The matching figures for `CCCC(C(=O)NC1CCc2c(O)cccc21)N1CCN(C(=O)OC(C)(C)C)CC1` (centres undefined): -9% and 1.51.
With `CC1(C)CN(C(=O)NCCc2cnc3c(Cl)cnn3c2)CCc2ccccc21`, the “% Inhibition” value is -15% and the Z score is listed as 1.27.
Turning to `C[C@@H]1CC(=O)N[C@H](C(=O)NCCn2cnnc2C2CC2)C1`, the “% Inhibition” value came to 15% and the Z score is given as -1.94.

Source of the values: ChEMBL document CHEMBL4888484, “Replenishing the malaria drug discovery pipeline: Screening and hit evaluation of the MMV Hit Generation Library 1 (HGL1) against asexual blood stage Plasmodium falciparum ,using a nano luciferase reporter read-out” (2022).
